Reference: paper PMC4336329 (PLoS ONE, 2015)
Screen size: about 310,000 compounds; about 14,000 (4.5%) showed an effect of 50% or more. The effect is printed as a negative number. This is one part of the list.
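Further: peak tail current of the secondary pulse compared with the same well before compound.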

The compounds below were run against human ether-à-go-go-related gene (hERG) potassium channel (human, UniProt Q12809) (assay: primary screen, population patch clamp on CHO cells stably expressing hERG).
Chain of human ether-à-go-go-related gene (hERG) potassium channel (Q12809 whole entry, looked up): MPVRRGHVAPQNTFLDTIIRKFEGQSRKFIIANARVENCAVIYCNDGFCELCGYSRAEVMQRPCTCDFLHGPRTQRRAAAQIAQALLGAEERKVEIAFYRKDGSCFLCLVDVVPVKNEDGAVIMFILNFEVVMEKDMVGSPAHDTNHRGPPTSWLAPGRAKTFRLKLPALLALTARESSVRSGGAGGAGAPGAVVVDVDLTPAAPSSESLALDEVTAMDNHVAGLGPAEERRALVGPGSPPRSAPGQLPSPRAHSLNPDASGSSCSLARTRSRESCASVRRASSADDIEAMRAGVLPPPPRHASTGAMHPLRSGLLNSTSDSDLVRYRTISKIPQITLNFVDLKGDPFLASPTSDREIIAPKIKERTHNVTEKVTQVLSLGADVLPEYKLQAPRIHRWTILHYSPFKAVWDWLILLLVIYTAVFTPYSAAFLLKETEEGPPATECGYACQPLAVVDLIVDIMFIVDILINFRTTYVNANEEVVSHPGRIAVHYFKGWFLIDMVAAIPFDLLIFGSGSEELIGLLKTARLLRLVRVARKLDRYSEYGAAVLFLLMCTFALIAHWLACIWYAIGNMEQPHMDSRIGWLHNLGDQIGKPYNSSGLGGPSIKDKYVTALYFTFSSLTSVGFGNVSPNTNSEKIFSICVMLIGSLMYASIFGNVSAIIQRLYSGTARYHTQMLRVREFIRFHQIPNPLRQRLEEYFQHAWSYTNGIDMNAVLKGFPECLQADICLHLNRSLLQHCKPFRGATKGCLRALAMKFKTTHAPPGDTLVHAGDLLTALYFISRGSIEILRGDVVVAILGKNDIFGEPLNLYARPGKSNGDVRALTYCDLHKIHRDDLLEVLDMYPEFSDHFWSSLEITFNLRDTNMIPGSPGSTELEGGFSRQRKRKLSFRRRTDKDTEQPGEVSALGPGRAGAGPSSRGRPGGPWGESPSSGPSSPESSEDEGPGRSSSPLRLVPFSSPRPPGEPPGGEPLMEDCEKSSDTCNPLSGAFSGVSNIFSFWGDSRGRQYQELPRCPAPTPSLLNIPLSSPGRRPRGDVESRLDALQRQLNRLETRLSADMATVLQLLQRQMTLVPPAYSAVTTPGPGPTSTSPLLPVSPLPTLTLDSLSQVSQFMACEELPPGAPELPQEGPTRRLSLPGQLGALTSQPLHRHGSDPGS
For `Cc1cccc(OCC(=O)NNC(=O)C2CCCCC2C(=O)O)c1` (stereo not shown), the “hERG current change (%, negative = inhibition) at 10uM” value was -0.28%. With `COc1ccc(-c2cc(-c3n[nH]c(=S)n3-c3ccccc3Cl)[nH]n2)cc1` the “hERG current change (%, negative = inhibition) at 10uM” value was 13.5%. `O=C(OCn1ncc(Cl)c(Cl)c1=O)c1ccc(F)cc1` was tested, and the “hERG current change (%, negative = inhibition) at 10uM” value was -3.74%. For `COc1ccccc1C(=O)COC(=O)CNS(=O)(=O)c1ccc(NC(C)=O)cc1`, the “hERG current change (%, negative = inhibition) at 10uM” value was 15%. For `COc1ccc(C=NCCC2(O)CC(C)N(C)CC2C)cc1` (stereo not shown), the “hERG current change (%, negative = inhibition) at 10uM” value was 8.31%. For `CN(C)CC(C)(C)CNS(=O)(=O)c1ccc(Cl)c(Cl)c1`, the “hERG current change (%, negative = inhibition) at 10uM” value was -6.25%. `S=c1[nH]nc(CCc2ccccc2)n1-c1ccc(Cl)cc1` was tested, and the “hERG current change (%, negative = inhibition) at 10uM” value was 9.95%. With `NC(=O)CSCc1c(Cl)cccc1Cl` the “hERG current change (%, negative = inhibition) at 10uM” value was -1.28%. `COc1cccc(C2/C(=C(\O)c3ccc4c(c3)OCCO4)C(=O)C(=O)N2CCN(C)C)c1` (stereo not shown) was tested, and the “hERG current change (%, negative = inhibition) at 10uM” value was 5.98%. For `COc1ccc2c(Cl)c(C(=O)NN3CCN(C)CC3)sc2c1`, the “hERG current change (%, negative = inhibition) at 10uM” value was 3.23%. For `COc1ccc(OC)c(/C(C)=N\NC(=O)c2cc3cc(Cl)ccc3n2C)c1`, the “hERG current change (%, negative = inhibition) at 10uM” value was 19.9%. In the case of `COCCNC(=O)CN(Cc1ccc(Cl)cc1)S(C)(=O)=O`, the “hERG current change (%, negative = inhibition) at 10uM” value is reported as -4.31%. In the case of `CCOC(=O)c1cnn2c(C)cc(-c3ccccc3)nc12`, the “hERG current change (%, negative = inhibition) at 10uM” value is reported as -10.4%. For `CSc1ncc(CN2CCc3c([nH]c4ccccc34)C2c2cccc(C)n2)cn1` (stereo not shown), the “hERG current change (%, negative = inhibition) at 10uM” value was -13.8%. With `CC1CN(S(=O)(=O)c2csc(C(=O)Nc3ccccc3)c2)CC(C)O1` (stereo not shown) the “hERG current change (%, negative = inhibition) at 10uM” value was 14.8%. With `COC1=CC=C2[C@H]3Cc4ccc(OC)c5c4[C@@]2(CCN3C)[C@H]1O5.Cl` the “hERG current change (%, negative = inhibition) at 10uM” value was 10.3%. For `CCN(CC)S(=O)(=O)c1cccc(C(=O)N[C@H](C(=O)NCc2ccc(Cl)cc2)C(C)C)c1`, the “hERG current change (%, negative = inhibition) at 10uM” value was -9.42%. `CC1CCN(CCC(=O)Nc2ccc3c(c2)CCC3)CC1` was tested, and the “hERG current change (%, negative = inhibition) at 10uM” value was -29.4%. With `COc1cc(SC)ccc1C(=O)N1CCN(c2ccccc2OC)CC1` the “hERG current change (%, negative = inhibition) at 10uM” value was -24.5%. With `Cc1c(CCC(=O)NCCCN2CCCC2=O)c(=O)oc2cc(O)ccc12` the “hERG current change (%, negative = inhibition) at 10uM” value was 13.5%. `Cc1ccc(-n2nc3c(=O)n(C(C)C(=O)NC4CC4)nc(C)c3c2C)cc1` (stereo not shown) was tested, and the “hERG current change (%, negative = inhibition) at 10uM” value was -2.58%. `COC(=O)c1cn(NC(=O)Cc2ccccc2Br)c(=O)c2ccccc12` was tested, and the “hERG current change (%, negative = inhibition) at 10uM” value was 18.1%. For `CN1CCN(C(=O)COc2ccc(S(=O)(=O)NC3CCCCC3)cc2Cl)CC1`, the “hERG current change (%, negative = inhibition) at 10uM” value was 6.73%. With `COc1ccc2c(c1OC)CN(C)CCc1cc3c(cc1C(=O)C2)OCO3` the “hERG current change (%, negative = inhibition) at 10uM” value was -81%. With `CC(c1ccncn1)N(C)C(=O)c1ccc2oc(Cc3ccccc3)nc2c1` (stereo not shown) the “hERG current change (%, negative = inhibition) at 10uM” value was -4.15%. `Cc1c(NC(=O)c2ccc(N(Cc3ccccc3)S(C)(=O)=O)cc2)c(=O)n(-c2ccccc2)n1C` was tested, and the “hERG current change (%, negative = inhibition) at 10uM” value was 29.6%. For `Cc1onc(-c2ccccc2)c1-c1nnc(-c2ccccc2C(F)(F)F)o1`, the “hERG current change (%, negative = inhibition) at 10uM” value was -0.898%. For `CCn1cc(Cl)c(C(=O)NNC(=O)CCn2ccc([N+](=O)[O-])n2)n1`, the “hERG current change (%, negative = inhibition) at 10uM” value was 36.6%. `O=C(c1ccc(S(=O)(=O)N2CCCCC2)cc1)N1CCN(c2ccccc2F)CC1` was tested, and the “hERG current change (%, negative = inhibition) at 10uM” value was -16.6%. With `COc1ccc(C(=O)Nc2cccc3c2C(=O)NC3=O)cc1S(=O)(=O)N1CCOCC1` the “hERG current change (%, negative = inhibition) at 10uM” value was -6.84%. With `COc1cc(C(=O)N2CCN(c3ncnc4sc(C)c(C)c34)CC2)cc(OC)c1OC` the “hERG current change (%, negative = inhibition) at 10uM” value was -47.2%. `COc1cc(CNc2nc3ccccc3[nH]2)cc(OC)c1OC.Cl` was tested, and the “hERG current change (%, negative = inhibition) at 10uM” value was -8.99%. For `CCCC(=O)NCc1cc(-c2nn(C)c(=O)c3ccccc23)ccc1OC`, the “hERG current change (%, negative = inhibition) at 10uM” value was 7.01%. `COC(=O)/C(=C/c1ccco1)NC(=O)c1ccccc1` was tested, and the “hERG current change (%, negative = inhibition) at 10uM” value was -1.9%. `Cn1c(SCC(=O)NCc2ccc(F)cc2)nc2c([nH]c3ccccc32)c1=O` was tested, and the “hERG current change (%, negative = inhibition) at 10uM” value was 8.05%. `C=CCn1c(SCC(=O)OCC)nc2cc(C(=O)NCc3ccco3)ccc2c1=O` was tested, and the “hERG current change (%, negative = inhibition) at 10uM” value was -17.6%. For `COc1ccc2nc(NC(=O)C34CC5CC(CC(NC(C)=O)(C5)C3)C4)sc2c1`, the “hERG current change (%, negative = inhibition) at 10uM” value was -11.1%. For `COC(=O)c1ccc(-c2noc(CN(C)Cc3ccncc3C)n2)cc1`, the “hERG current change (%, negative = inhibition) at 10uM” value was 3.71%. In the case of `COc1cccc(C(=O)Nc2ccc(C3CC3(Cl)Cl)cc2)c1` (stereo not shown), the “hERG current change (%, negative = inhibition) at 10uM” value is reported as 4.37%. In the case of `CC(=O)N1c2c(cc(Br)cc2S(=O)(=O)N2CCN(c3ccccc3F)CC2)CC1C` (stereo not shown), the “hERG current change (%, negative = inhibition) at 10uM” value is reported as 11.9%. `CCOc1ccc(NC(=O)C(C)Oc2ccccc2C(=O)Nc2ccc(C)c(Cl)c2)cc1` (stereo not shown) was tested, and the “hERG current change (%, negative = inhibition) at 10uM” value was 0.82%. With `COc1ccc(C(=O)NCC(=O)OCc2cccc(Br)c2)cc1` the “hERG current change (%, negative = inhibition) at 10uM” value was 6.87%. In the case of `CC(OC(=O)c1cc2sccc2n1C)C(=O)NCCc1ccccc1` (stereo not shown), the “hERG current change (%, negative = inhibition) at 10uM” value is reported as -20.6%. `CCOc1ccc2nc(COC(=O)c3ccco3)c(C(C)=O)[n+]([O-])c2c1` was tested, and the “hERG current change (%, negative = inhibition) at 10uM” value was 0.493%. For `CC1CN(C(=O)CSc2nc(-c3ccc(F)cc3)cs2)CC(C)O1` (stereo not shown), the “hERG current change (%, negative = inhibition) at 10uM” value was -4.53%. In the case of `COc1ccc(-c2csc(NC(=O)COC(=O)c3ccco3)n2)cc1`, the “hERG current change (%, negative = inhibition) at 10uM” value is reported as 3.04%. For `Cc1ccc(S(=O)(=O)N2CCN(C(=O)CSc3nnc(C)c(=O)[nH]3)CC2)cc1`, the “hERG current change (%, negative = inhibition) at 10uM” value was 7.55%. `COc1ccc(NC(=O)/C(C#N)=C/c2ccc(-c3ccc(Cl)c(C(=O)O)c3)o2)cc1` was tested, and the “hERG current change (%, negative = inhibition) at 10uM” value was 25.4%. `CC(C)CCn1c(=O)[nH]c2ccccc21` was tested, and the “hERG current change (%, negative = inhibition) at 10uM” value was 4.02%. With `CCC(C)(C)NC(=O)CN(C(=O)c1snc(C(N)=O)c1N)c1ccc(OC)c(OC)c1` the “hERG current change (%, negative = inhibition) at 10uM” value was 4.07%. With `CC(O)[C@H]1CNCCN1CCc1cc(C(F)(F)F)cc(C(F)(F)F)c1` (stereo partly shown) the “hERG current change (%, negative = inhibition) at 10uM” value was -9.86%. With `CCC12CN3CCN(CC(C3)/C1=N\NC(=O)c1ccc(C(C)(C)C)cc1)C2` the “hERG current change (%, negative = inhibition) at 10uM” value was -22.9%. For `O=C(Nc1ccccc1F)c1c[nH]c(=O)[nH]c1=O`, the “hERG current change (%, negative = inhibition) at 10uM” value was 1.43%. With `CC(C)c1nc(Cl)c(C#N)c2c1CSC(C)(C)C2` the “hERG current change (%, negative = inhibition) at 10uM” value was 4.23%. `COc1ccc(C(=O)NNC(=O)CCC(=O)Nc2ccc(C)cc2C)cc1` was tested, and the “hERG current change (%, negative = inhibition) at 10uM” value was 11.7%.
